# Data from the supplement of paper PMC11417369.
# The other results are listed elsewhere or left out.
# Tested on: PfAP2-HC AP2 domain (GST-tagged)
# Assay: gcPBM binding intensity (ln(normalized median fluorescence intensity)); higher = stronger DNA binding
# Method in brief: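 GST-fused DNA-binding domains of P. falciparum, expressed in E. coli, were applied at about 25 μg on average for 1 h to an Agilent 4 × 180k array of primer-extended double-stranded 36-bp intergenic genomic probes and negative controls. Binding intensity is the highest Masliner-normalised natural-log median intensity across replicate spots of either probe orientation, measured with Alexa488 anti-GST antibody and a 488 nm scan.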
row,Sequence,gcPBM binding intensity (ln)
1,TTTTTTTTTTTTTGGTGTACCATAGGTAAAATGATT [XGTACX_site8020],9.34
2,ATTTATGGAAAAAGAACACACAATCAAACAAAAATA [CACACA_site3707],10
3,ATATAAATGAATATATGTACATATATATATATATAT [XGTACX_site6361],9.82
4,CAAAATATAGATGACACACACAAAAAAAGTATATTA [CACACA_site6848],10.6
5,AGATAAAAAAAGTACACACACACATATATATATATA [CACACA_site3072],10.4
6,AAGCTTCCTTAATATACACACATATCTGAGTATATT [CACACA_site5939],9.89
7,CATTTACCCTTATTAACACACAAAATATAATACGCT [CACACA_site2565],9.83
8,AAAATTATAATATATACACACATATATATATTAAAT [CACACA_site473],9.78
9,ATAGAAAGTGACAATTGTACATACATATTATATATA [XGTACX_site4390],10
10,TTCTTGGAATACAAGTGTACTTTATTATTATTATTA [XGTACX_site5997],9.68
11,AAAAAAAAAAAAAAAAAAAAATTTCAATTATATTGA [GTGCAC_negctrl_site642],9.27
12,TTTTTTTTTGCCTACTGTACTATTTTTGAGCTCACC [XGTACX_site7967],9.63
13,ACGTAAAATTATTATTGTACATGTAAATAATTTGGA [XGTACX_site8154],9.85
14,TATATTAAACATATATGTACATATTTTTTCTGAACA [XGTACX_site5390],9.6
15,TATTGTTTTTTTGATTTTTTTTTTTTTTTTAATGAA [CACACA_negctrl_site824],9.33
16,ACCAAATCATATATAGCACACAAATTCTTTATTATT [CACACA_site8911],9.81
17,AATATTTTCTGTAATACTTCTTTTCAATTTATTTCG [CACACA_negctrl_site1390],9.6
18,AATATCAATGATGTTACATGCAAGAGAATCCACAAA [TGCATGCA_site678],9.7
19,TAACTCCACAAATAATGTACATATATCACTATATTT [XGTACX_site4911],9.84
20,AATGTATAATTATAATGTACAAATAATATATAATAT [XGTACX_site5407],9.78
21,TATATAATATATATTTTATATTTGTAATAATTTTTT [GTGCAC_negctrl_site497],9.51
22,TACATATGAAAATACACACATACATACATATATATA [CACACA_site1673],9.92
23,ATTTACATTCACTTATGTACTTATATAATTTTATTT [XGTACX_site8150],9.93

row,Sequence,gcPBM binding intensity (ln)
1,AATACATAATAACATGTACACACATTCTTCTATAAA [CACACA_site9344],9.82
2,TATACGAAATTGTGCACACATATATTTATGTATGTA [CACACA_site1509],9.89
3,TTAAAAGAATATAATGCACACATTATTTTATTTTAT [CACACA_site3772],9.68
4,AAAAAAAACGAACACACACACATACAAAATCTATAT [CACACA_site6795],11.1
5,TACCCACGTATATATATACACACTAATATACACCCA [CACACA_site9381],9.88
6,ATTTATATATAATTTTGTACGAAAAAAATAAGGTAT [XGTACX_site3578],9.64
7,TATATATTTATTAAATGTACATAACAAAAATGGTAT [XGTACX_site3577],9.76
8,TGCATACATAAATGTATATATTAATATATATCATAT [GTGCAC_negctrl_site252],9.63
9,AAATAAAGTAAAATATGTACATAAATTAAAACACAT [XGTACX_site8539],10
10,TTAAATGAAAAAATATGTACGTATAATAAGAAATAT [XGTACX_site6619],9.8
11,GTATGAGTCGTAGAGTGTACTCTGGAGAAAACTACA [XGTACX_site4942],9.53
12,TTTTTTCTTAGTTATACATGCAAAATAAATAAATAA [TGCATGCA_site410],9.17
13,TATTTTTTCTTAAACACACACATATATATATAGAAT [CACACA_site2836],9.91
14,TATAACGCTTGCAGCTGTACAAAAATAATCAAACTG [XGTACX_site2464],9.37
15,TTTTTTTTTTTGTTCACACATATACTTTTATTTTGG [CACACA_site4250],9.68
16,AATGCTATCATTAATGCACACATTTAAACTTAATAT [CACACA_site5878],9.8
17,TTTGTTTTAAATATTATACACACGTAAAAGTAGAAT [CACACA_site214],9.65
18,GGAAACCTTTTTTTTACACACAATATATTAATACTT [CACACA_site1403],9.94
19,TACACCCTATTTTTATGTACTTATTTGATTTACACA [XGTACX_site8172],9.86
20,ATATAAATACGGTGTGCACACACATAATATATATAT [CACACA_site2271],10.5
21,CAAATTTAAAAAAAATCACACACAGAAAAAAAAAAA [CACACA_site8728],10.1
22,CAAGAAAATGGACACACACACATATATATATATATA [CACACA_site6010],10.2
